Laboratory results from PubChem BioAssay AID686979 (National Center for Advancing Translational Sciences (NCATS), 2013).
In all, about 420,000 compounds went through this assay and about 50,000 (12%) were called active. This list was built around the results that the source calls inconclusive (neither active nor inactive); the mix of calls is not that of the screen. The call rests on the fitted dose curve; in most records, active means well fitted inhibition curve with a large enough effect; inconclusive means small, poorly fitted or top-dose-only effect; inactive means flat fitted curve, though single readings scatter. No potency is given beside an inconclusive call; the fits are too rough. Where a SMILES comes first, the peptide text is derived from it. Bridges are numbered along the chain shown (N, C = ends). [ ]: non-standard residue; d: D form. hArg = N=C(N)NCCCC[C@H](N)C(=O)O; Mpa = O=C(O)CCS

Assay: qHTS for Inhibitors of human tyrosyl-DNA phosphodiesterase 1 (TDP1): qHTS in cells in presence of CPT; further: nearly all actives have a fitted effect of over 55% in size
Conditions: chicken DT40 Tdp1-/-;hTDP1 cells + 20 nM CPT, ATP luminescence, 48 h; activity change, negative = growth inhibition: at 46.2 µM (top of the series) unless noted
Method in brief: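 Chicken DT40 Tdp1-/- cells complemented with human TDP1, 400 cells/well, exposed to compounds plus 20 nM camptothecin for at least 48 h at 37 C; viability read as ATP content by CellTiter-Glo luminescence.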
On the % scale 0 is the no-effect control and ±100 the full control effect; potency means the concentration at half of the fitted maximal effect; tags describe the fitted curve by direction and shape.

| Structure (SMILES) | Potency | activity change, negative = growth inhibition |
| --- | --- | --- |
| O=C(Nc1ccccc1[N+](=O)[O-])C1(c2ccccc2)CCOCC1 | inconclusive [inhibitor, single point] |  |
| O=C(NN=Cc1ccccc1)NN=Cc1ccccc1 |  | inactive: 12.7% |
| Cc1nn(CC(=O)NCCN2CCOCC2)c(=O)c2cc3sccc3n12 |  | inactive: 11.1% |
| Cc1cc(OCC(=O)N2CCc3ccccc3C2)c2c(-c3ccccc3)cc(=O)oc2c1 | active: 23.1 µM |  |
| CCNc1ccc(S(=O)(=O)N(C)C)cc1NCC(=O)Nc1ccccc1Cl | inconclusive [inhibitor, single point] |  |
| CCCc1nn(C)c(C(=O)Nc2cccc(CC)c2)c1Cl | inconclusive [inhibitor, partial curve] |  |
| Cc1cnc2ccc3ccccc3c2c1C | inconclusive [inhibitor, single point] |  |
| O=C(/C=C/c1ccc(Cl)cc1)Nc1ccccc1N1CCOCC1 | inconclusive [inhibitor, partial curve, poor fit] |  |
| O=Cc1ccc2noc(-c3ccc(Cl)cc3)c2c1 | inconclusive [inhibitor, single point] |  |
| Cc1cc(C)cc(OCC(=O)OCC(=O)N(C)CC(=O)Nc2ccc(F)cc2)c1 |  | inactive: 11.5% |
| NC(=O)[C@@H]1CSSCCC(=O)N[C@@H](CCCCN=C(N)N)C(=O)NCC(=O)N[C@@H](CC(=O)O)C(=O)N[C@@H](Cc2c[nH]c3ccccc23)C(=O)N2CCC[C@H]2C(=O)N1 ([Mpa][hArg]GDWPC-NH2; disulfide 1-7) | inconclusive [inhibitor, single point] |  |
| CC(C)NC(=O)C(c1ccc(F)cc1)N(C(=O)CCC(=O)Nc1ccccn1)c1cccc(F)c1 (configuration not stated) | inconclusive [inhibitor, single point] |  |
| COc1ccc(OC)c(Nc2nc3ccccc3n3c(C)nnc23)c1 |  | inactive: -2.6% |
| CCOC(=O)N/N=C/C(Cl)=C/c1ccccc1 |  | inactive: -25.6% |
| CCOc1ccc(N2C(=O)S/C(=C\c3cccn3C)C2=O)cc1 | inconclusive [inhibitor, single point] |  |
| COc1ccc(NC(=O)C2CCN(S(=O)(=O)c3ccc(Cl)c(C(F)(F)F)c3)CC2)cn1 | inconclusive [inhibitor, single point] |  |
| CC(=O)Oc1ccc2c(=O)c(-c3ccccc3)c(C)oc2c1 | inconclusive [inhibitor, single point] |  |
| O=C(COC(=O)c1ccc(Cl)nc1)c1ccc2c(c1)OCCO2 | inconclusive [inhibitor, partial curve] |  |
| CCN(CC)c1ccc(NC(=O)COc2ccccc2C#N)cc1S(=O)(=O)Nc1ccccc1OC | active: 2.59 µM |  |
| C#CC(C)(CC)NC(=O)Cn1nnc(-c2ccc(OCc3ccccc3F)cc2)n1 (configuration not stated) | inconclusive [inhibitor, single point] |  |
| COc1ccc(COC(=O)c2[nH]c3c(c2C)C(=O)CC(c2ccc(OC)c(OC)c2)C3)cc1 (configuration not stated) | active: 9.2 µM |  |
| CCOP(=O)(CC(C(C)=O)C(O)c1ccccc1)OCC (configuration not stated) |  | inactive: -14.1% |
| CCOc1cc(C=C(C#N)C#N)ccc1Oc1ccc([N+](=O)[O-])cn1 | active: 18.4 µM |  |
| CC1CCCC(C)N1C(=S)NCc1ccco1 (configuration not stated) | inconclusive [inhibitor, single point] |  |

| Structure (SMILES) | Potency | activity change, negative = growth inhibition |
| --- | --- | --- |
| CN(C)NC(=S)NC(=O)C12CC3CC(CC(C3)C1)C2 | active: 4.11 µM |  |
| COc1ccc(-n2nc([N+](=O)[O-])c(=NCCC3=CCCCC3)n2O)cc1 | active: 20.6 µM |  |
| O=C(c1[nH]c(C(F)(F)F)nc1-c1ccccc1)N1CCc2c([nH]c3ccccc23)C1 | active: 5.8 µM |  |
| COc1ccc(-c2nc(CN3CCC(C(=O)NCCCN4CCN(c5ccccc5F)CC4)CC3)c(C)o2)cc1OC | inconclusive [inhibitor, partial curve, poor fit] |  |
| S=C(Nc1ccc(CN2CCCCC2)cc1)Nc1cccc(Cl)c1Cl | inconclusive [inhibitor, single point] |  |
| O=c1nc(N/N=C/c2ccccn2)cn[nH]1 | active: 5.17 µM |  |
| Cc1cc(NC(=O)CN2C(=O)NC(C)(CCc3ccccc3)C2=O)no1 (configuration not stated) |  | inactive: 12.3% |
| N=c1sccn1CC(=O)Nc1ccc2c(c1)CCC2 | inconclusive [inhibitor, single point] |  |
| Cc1cccc2[nH]c3c(=O)n(CCN4CCNCC4)cnc3c12 | inconclusive [inhibitor, single point] |  |
| Cc1ccc(SCc2[nH]nc3c2C(c2ccc(C)o2)C(C#N)=C(N)O3)cc1 (configuration not stated) | active: 16.4 µM |  |
| COc1ccc(OC)c(C2=NO[C@@](CC(=O)O)(C(=O)Nc3ccc4c(c3)OCCO4)C2)c1 | inconclusive [inhibitor, partial curve] |  |
| Cc1nn(C)c(Cl)c1S(=O)(=O)N[C@@H](c1ccccc1)[C@]1(C)C[C@H]1[C@@H](C)C(=O)Nc1ccc2ccccc2c1 | inconclusive [inhibitor, single point] |  |
| COc1ccc(-c2cc(NC=O)c3ncc(-c4cccc(OC)c4)n3c2)cc1 | active: 5.8 µM |  |
| Cc1ccc(NC(=O)C(=O)NCCOc2ccccc2Cl)cc1 | inconclusive [inhibitor, single point] |  |
| CCC1S/C(=N/N=C/c2ccco2)N(Cc2ccccc2C)C1=O (configuration not stated) | inconclusive [inhibitor, single point] |  |
| O=C(C1=C(O)C(=O)N(CC2CCCO2)C1c1ccccc1)c1ccco1 (configuration not stated) |  | inactive: 1.21% |
| O=C(c1ccncc1)N1CCC2(CC1)CCN(c1ccc(-c3ccccc3)cc1)CC2 | active: 6.51 µM |  |
| O=C(N/N=C\C=C\c1ccc(Br)cc1)c1ccc2c(c1)OCO2 |  | inconclusive: -32.2% [inhibitor] |
| CCN1CCN(CC(=O)c2cc(OC)c(OC)c(OC)c2)CC1 |  | inactive: -1.2% |
| CC1=CC(C)(C)NC(=S)N1c1ccc(C)cc1 | active: 20.6 µM |  |
| CCOc1cc(/C=C2/C(=O)ON=C2C)ccc1OCc1ccccc1F | inconclusive [inhibitor, single point] |  |
| COc1ccc(C(=O)N/N=C/c2cc3ccccc3[nH]c2=S)cc1 | active: 1.46 µM |  |
| CCn1nnc(-c2ccc(N)cc2)n1 |  | inactive: -6.54% |
| CC(=O)Nc1cccc(-c2ccnc3c2CC(C(=O)Nc2ccc(F)c(Cl)c2)O3)c1 (configuration not stated) | active: 18.4 µM |  |

| Structure (SMILES) | Potency | activity change, negative = growth inhibition |
| --- | --- | --- |
| COc1ccc(NC(=O)Nc2cccc3cccnc23)cc1 |  | inconclusive: -31.8% [inhibitor] |
| COc1ccc(OC)c(NC(=S)N(CCc2c(C)[nH]c3ccc(C)cc23)Cc2cccs2)c1 | inconclusive [inhibitor, single point] |  |
| COC(=O)[C@]12CCCCC=C1N(CCC1=CCCCC1)C(=O)[C@H](CC(=O)N1CCC(c3ccccc3)CC1)C2 | inconclusive [inhibitor, single point] |  |
| COCC(=O)N(c1ccc(C(C)C)cc1)C1C=CS(=O)(=O)C1 (configuration not stated) |  | inactive: -2.69% |
| O=C(Nc1nccs1)c1nc(-c2ccccc2)n(-c2ccccc2)n1 |  | inconclusive: -32.3% [inhibitor] |
| Cc1ccc(OCCCCN2CCCC(C)C2)c([N+](=O)[O-])c1 (configuration not stated) | active: 18.4 µM |  |
| Cc1cccc(NC(=O)C2CCN(S(=O)(=O)c3c(C)c(C)cc(C)c3C)CC2)n1 | active: 14.6 µM |  |
| COC(=O)n1c(SC)nc2ccccc21 | inconclusive [inhibitor, single point] |  |
| COc1ccc(OC)c(NC(=O)c2cc3c(s2)-c2ccccc2SC3)c1 | inconclusive [inhibitor, single point] |  |
| O=[N+]([O-])c1ccc(N2CCCC2)c([N+](=O)[O-])c1 |  | inactive: 9.8% |
| O=C(Nc1ccccc1)NC1(C(=O)N2CCC(O)CC2)CCCCC1 |  | inactive: 2.11% |
| C#CCN(Cc1ccc(OC)cc1)S(=O)(=O)C=C | inconclusive [inhibitor, single point] |  |
| CC1=C(C(=O)OCc2ccc(C)cc2)C(c2c(Cl)cccc2Cl)CC(=O)N1 (configuration not stated) |  | inactive: -45.1% |
| Cc1ccc(-n2ncc(C(=O)NC3CCCC3)c2C2CCN(C(=O)OC(C)(C)C)CC2)c(C)c1 | inconclusive [inhibitor, single point] |  |
| O=[N+]([O-])/C(C(Cl)=C(Cl)Cl)=C(/NC1CC1)Sc1ccccc1 | inconclusive [inhibitor, single point] |  |
| Cn1c(=O)oc2cc(S(=O)(=O)NCc3ccc(C(=O)O)cc3)ccc21 |  | inactive: -3.61% |
| CS(=O)(=O)c1ncc(N(Cc2ccco2)Cc2ccco2)c(C(=O)Nc2ccccc2Br)n1 | inconclusive [inhibitor, single point] |  |
| COc1cccc(Cn2nnc3c(=O)[nH]c(C4CCCN(C(=O)c5ccc(C)cc5)C4)nc32)c1 (configuration not stated) | inconclusive [inhibitor, single point] |  |
| Cc1ccccc1NC(=S)NNC(=O)c1csc2c1CCC(C)C2 (configuration not stated) | inconclusive [inhibitor, single point] |  |
| CNc1nc(Oc2ccc(=O)n(C)n2)nc(N2CCOCC2)n1 | inactive |  |
| Cc1ccc(C23CC4CC(CC(C(=O)OCC(=O)N(C)C)(C4)C2)C3)cc1 | inconclusive [inhibitor, partial curve] |  |
| COc1cccc(Nc2nc(-c3sc(C)nc3C)cs2)c1 |  | inactive: -17% |
| Cc1ccc(C)c(NS(=O)(=O)c2ccc3c4c(cccc24)C(=O)N3)c1 | inconclusive [inhibitor, single point] |  |
| CCCc1nc2cc(C)c(Br)c(C)n2c1Cc1ccsc1 | active: 11.6 µM |  |
